Assay results from PubChem BioAssay AID588855 (National Center for Advancing Translational Sciences (NCATS), 2011).
Among all 410,000 compounds or so, about 5,000 (1.2%) were called active. This list was built around the results that the source calls inconclusive (neither active nor inactive); the mix of calls is not that of the screen. Calls come from the whole dose curve; as a rule, active = well fitted inhibition curve with a large enough effect; inconclusive = small, poorly fitted or top-dose-only effect; inactive = no such curve, though single readings can be large or run the other way. Potencies beside an inconclusive call are fits to weak or partial responses and may not hold up.

Assay: qHTS for Inhibitors of TGF-b; note: nearly all actives have a fitted effect of over 65% in size
Conditions: HepG2 CAGA-GFP TGF-b/SMAD3 reporter, GFP fluorescence, 18 h, TGF-beta stimulated, 500 pg/mL final; series mostly up to 46.1 µM; activity, negative = inhibition: at the top concentration
Procedure, shortened: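 HEPG2 CAGA-GFP reporter cells (1000/well, DMEM with 1% FBS) received compounds, then recombinant TGF-beta at 500 pg/mL final for 18 hours at 37 degrees C. Per-cell GFP summed per well was normalised to unstimulated and stimulated DMSO controls before curve fitting.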
% is set by controls: 0 for no effect and ±100 for the full control effect; potency is the fitted concentration of half-maximal effect; tags give direction and shape of the fitted curve.

Structure (SMILES)	Potency	activity, negative = inhibition
COc1ccc(CNc2oc(COc3cccc(C)c3)nc2C#N)cc1	inconclusive: 20 µM [inhibitor, partial curve, poor fit]	
O=C(c1cc(Cl)cc(Cl)c1)N1CCC(=O)N(C(COCc2ccccc2)Cc2ccccc2)CC1 (stereo unspecified)	inconclusive: 35.5 µM [inhibitor, single point]	
Cc1cc(Cl)ccc1OCC(=O)Nc1cccc(S(=O)(=O)N2CCCC2)c1	inconclusive: 12.6 µM [inhibitor, partial curve, poor fit]	
COc1ccc(CNC(=O)COC(=O)c2ccc(S(=O)(=O)N3CCCCC3)cc2)cc1		inactive: -1.78%
CCCc1ccc(OCc2ccc(C(=O)N3CCN(c4ccccn4)CC3)o2)c(OC)c1	inconclusive: 11.2 µM [inhibitor, partial curve, poor fit]	
COc1ccc(-c2csc(NC(=O)CCCc3nc4ccccc4c(=O)[nH]3)n2)cc1OC		inactive: -18.1%
CC(C)(C)c1cc[n+](C2=C([O-])c3ccccc3C(=O)/C2=N\S(=O)(=O)c2ccccc2)cc1	active: 14.1 µM	
CCOC(=O)C1=C(C)NC(=S)NC1/C=C/c1ccccc1 (stereo unspecified)	inconclusive: 20 µM [inhibitor, single point]	
CN(C(=O)Cc1c[nH]c2ccccc12)C(C(=O)Nc1ccc2c(c1)OCO2)c1ccccc1 (stereo unspecified)	inconclusive: 35.5 µM [inhibitor, single point]	
COc1cc(-c2noc(-c3ccc(NC4CCCCC4)c([N+](=O)[O-])c3)n2)cc(OC)c1OC	inconclusive: 4.47 µM [inhibitor, full curve]	
Oc1c(CN2CCN(c3ccccc3)CC2)cc(Br)c2cccnc12	inconclusive: 2.24 µM [inhibitor, partial curve, poor fit]	
CCCCCn1c(=N)c(S(=O)(=O)c2ccccc2)cc2c(=O)n3cccc(C)c3nc21		inactive: -0.518%
CCOC(=O)C1(C)NC(c2ccco2)C2C(=O)N(CC)C(=O)C21 (stereo unspecified)		inactive: -4.82%
Cc1cc(Nc2ccc(C(C)C)cc2)nc(-n2nc(C)cc2C)n1	inconclusive: 25.1 µM [inhibitor, partial curve, poor fit]	
O=C(COc1ccccc1[N+](=O)[O-])N/N=C/c1cccc(OC(=O)c2ccc3c(c2)OCO3)c1	inconclusive: 5.62 µM [inhibitor, single point]	
COc1ccccc1CN1CCSCC1		inactive: 27.2%
O=C1CCC/C=C\C[C@@H](CC(=O)N(CCO)Cc2ccccc2)C(=O)N[C@H](c2ccccc2)CO1		inactive: -16.3%
C=CCN(c1ccccc1)S(=O)(=O)c1cccc(C(=O)NC2CCN(Cc3ccccc3)CC2)c1	inconclusive: 35.5 µM [inhibitor, single point]	
C[C@H]1CN([C@@H](C)CO)C(=O)CCCn2cc(nn2)CO[C@@H]1CN(C)C(=O)Nc1ccccc1C(F)(F)F		inactive: 12.4%
Cc1cccc2sc(N(Cc3cccnc3)C(=O)Cc3ccccc3)nc12	active: 12.6 µM	
CCOc1ccccc1CN1CCNC(=O)C1CC(=O)NC1CCCCCCC1 (stereo unspecified)		inactive: 8.66%
Cc1nnc(SCc2ccccc2Cl)c2cc3occc3n12	inconclusive: 14.1 µM [inhibitor, single point]	

Structure (SMILES)	Potency	activity, negative = inhibition
Cc1sc2ccccc2[n+]1Cc1ccccc1	inconclusive: 14.1 µM [inhibitor, single point]	
C/C(=N/Oc1nc(C)cc(C)n1)c1ccc(Cl)cc1Cl		inactive: 6.28%
CC1=NN(c2ccc(C)cc2)C(=O)/C1=C\C=C\c1ccccc1	inconclusive: 11.2 µM [inhibitor, partial curve, poor fit]	
NC(COCc1ccccc1)c1csc(Nc2cc(Oc3ccccc3)ncn2)n1 (stereo unspecified)	inconclusive: 35.5 µM [inhibitor, single point]	
CSc1cccc(N2C(=O)N(CC(=O)NCc3ccccc3Cl)c3ccccc3S2(=O)=O)c1		inactive: -22.4%
Cc1ccc(OCCCN2C(=O)C(=O)c3cccc(C)c32)cc1	inconclusive: 14.1 µM [inhibitor, single point]	
CCCCNS(=O)(=O)c1ccc2nc(SCC(=O)Nc3sccc3C#N)[nH]c2c1	inconclusive: 22.4 µM [inhibitor, single point]	
COc1ccc2c(CNCc3cccs3)c(C(=O)O)n(Cc3ccc(F)cc3Cl)c2c1	inconclusive: 3.55 µM [inhibitor, partial curve, poor fit]	
CCOC(=O)c1cccc(NS(=O)(=O)c2c(C)nc3sc(C)cn3c2=O)c1	inconclusive: 6.31 µM [inhibitor, single point]	
O=C(NCCc1cccnc1)c1cc(COc2ccc(F)cc2Cl)on1	active: 12.6 µM	
COc1ccc(CNC(=O)c2ccc3c(c2)NC(=O)C(CS(=O)(=O)Cc2ccccc2Cl)N3)cc1 (stereo unspecified)		inactive: -0.529%
CCCCCCCCn1c(N2CCN(c3cccc(Cl)c3)CC2)nc2c1c(=O)[nH]c(=O)n2C		inactive: 0%
CCC(=O)N1CCC2(CC1)Oc1ccc(F)cc1C(=O)C21CC(c2ccc(Cl)cc2)=NO1 (stereo unspecified)		inactive: -1.36%
Cc1cc(C)nc(Sc2ccc(/C=C(\C#N)C(=O)Nc3ccccc3)o2)n1	inconclusive: 14.1 µM [inhibitor, single point]	
Cc1nc2ccc(S(=O)(=O)N(CC(=O)Nc3ccc(Cl)cc3)Cc3ccccc3)cc2s1	inconclusive: 17.8 µM [inhibitor, partial curve, poor fit]	
Cc1nc(N2CCN(c3ccccn3)CC2)c2c(C)c(C(=O)Nc3c(F)cc(F)cc3Br)sc2n1		inactive: -17.7%
Cc1ccc(C2c3c(oc4ccccc4c3=O)C(=O)N2c2nncs2)cc1 (stereo unspecified)	inconclusive: 35.5 µM [inhibitor, single point]	
O=C(COc1ccc(Cl)cc1Br)Nc1ccncc1	inconclusive: 0.112 µM [inhibitor, full curve, poor fit]	
CCCNC(=O)c1cc2c(c(-c3cccc(-c4ccc(F)cc4)c3)n1)[C@@H](CCO)N(S(=O)C(C)(C)C)C2 (stereo partly specified)	active: 15.8 µM	
O=C1C=C(/C=C/c2ccccc2)C[C@@H](c2ccc(F)cc2)C1	inconclusive: 1.12 µM [inhibitor, full curve, poor fit]	
COCCN(C(=O)CSc1nnc(-c2ccccc2OC)o1)c1c(N)n(CC(C)C)c(=O)[nH]c1=O	inconclusive: 3.55 µM [inhibitor, single point]	
CC(C)(C)c1ccc(SCCc2ccncc2)cc1	inconclusive: 11.2 µM [inhibitor, partial curve]	

Structure (SMILES)	Potency	activity, negative = inhibition
CCOC(=O)C1=C(O)/C(=C/c2cccc(OC)c2O)N=C1C		inactive: 18.8%
COc1ccc(C(=O)CCN2CCN(c3ccccc3F)CC2)cc1	inconclusive: 20 µM [inhibitor, single point]	
COc1ccc(S(=O)(=O)N(CCc2ccccc2)CC(=O)Nc2cc(C)ccc2C)cc1	inconclusive: 22.4 µM [inhibitor, single point]	
Cc1cccc(NC(=O)CSc2cn(CC(=O)N3CCOCC3)c3ccccc23)c1	inconclusive: 22.4 µM [inhibitor, single point]	
COc1ccccc1CNC(=O)C1(C)CCN1Cc1ccc2ccccc2c1 (stereo unspecified)	inconclusive: 22.4 µM [inhibitor, single point]	
CC(C)(C)[C@H]1COC(=O)[C@H](Cc2ccc(F)cc2)CC/C=C/C[C@@H](CC(=O)N[C@H](CO)Cc2ccccc2)C(=O)N1	inconclusive: 3.16 µM [inhibitor, single point]	
CCOC(=O)c1c(NC(=O)CSc2nnnn2-c2ccccc2OCC)sc2c1CC(C)(C)NC2(C)C	inconclusive: 35.5 µM [inhibitor, single point]	
CCC(C)(C)n1nnnc1C(c1cccs1)N1CCCCC1 (stereo unspecified)		inactive: -5.45%
Cc1ccc(CNC(=O)c2cnc3ccccc3n2)cc1	inconclusive: 10 µM [inhibitor, partial curve]	
O=c1oc2ccc(NS(=O)(=O)c3cccc4cccnc34)cc2s1		inactive: -25%
CC1C(=O)N(Cc2cn(CCC3OCCCO3)nn2)CCS(=O)(=O)N1Cc1ccc(-c2ccc(Cl)c(Cl)c2)cc1 (stereo unspecified)	inconclusive: 25.1 µM [inhibitor, single point]	
Cc1ccc(-c2nc3scc(CCNS(=O)(=O)c4c(C)noc4C)n3n2)cc1	inconclusive: 0.562 µM [inhibitor, full curve, poor fit]	
CC(CCc1ccco1)NC(=O)c1cc2c(-c3ccccc3F)nn(C)c2s1 (stereo unspecified)		inactive: -11.1%
CCN(CC)Cc1ccc(OC)c(Cl)c1	inconclusive: 6.31 µM [inhibitor, single point]	
Cc1ccc(Nc2nc(-c3ccc(F)cc3)cs2)nc1		inactive: 14.4%
COc1cccc(CNC(=O)c2ccc3c(c2)sc2nc(-c4ccccc4)cn23)c1OC	inconclusive: 3.55 µM [inhibitor, single point]	
Cc1ccsc1/C=N/N=C1\C(=O)Nc2ccccc21	inconclusive: 22.4 µM [inhibitor, single point]	
Cc1ccn2c(-c3csc(NCc4ccccc4)n3)c(C)nc2c1	inconclusive: 35.5 µM [inhibitor, single point]	
CCN(CC(=O)Nc1ccccc1C(F)(F)F)C(=O)C1CC(=O)N(Cc2ccccc2)C1 (stereo unspecified)	inconclusive: 3.55 µM [inhibitor, single point]	
CC(=NNC(=S)N(Cc1ccccn1)Cc1ccccn1)c1cnccn1	inconclusive: 1.26 µM [inhibitor, partial curve, poor fit]	
NCC(=O)Nc1ccc(Cl)cc1C(=O)c1ccc[nH]1		inactive: -0.0832%
O=C(c1cnc(N2CCCCC2)c2ccccc12)N1CCN(c2ccc(F)cc2)CC1	inconclusive: 11.2 µM [inhibitor, partial curve, poor fit]	
